# Results reported in PubChem BioAssay (NCATS).
# Values joined by “and” are separate entries in the source; they are usually repeats but may differ in a detail not shown here. Equal entries are not always repeated. This list was built around the results that the source calls inconclusive (neither active nor inactive); the mix of calls is not that of the screen. Potencies beside an inconclusive call are fits to weak or partial responses and may not hold up. Active and inactive are the calls of the source. Calls follow the shape of the dose curve; as a rule, active = well fitted inhibition curve with a large enough effect; inconclusive = small, poorly fitted or top-dose-only effect; inactive = no such curve, though single readings can be large or run the other way.
# Assay: BET inhibitor-based combinations targeting novel dependencies in MECOM-rearranged (r) AML: HNT-34 cell line (AID 2202234); also: nearly all actives have a fitted effect of over 35% in size;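 as to viability (% of control): plate controls were vehicle wells for no effect and cell-free wells for full effect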
# Settings: HNT-34 AML viability, CellTiter-Glo luminescence, 48 h; series mostly up to 46 µM; viability (% of control): at the top concentration
# From the text: Ecotropic viral insertion site 1 (EVI1) is located on chromosome 3q26.2 as part of the MECOM (MDS and EVI1 complex) locus. Under normal hematopoiesis, EVI1 is a regulator of hematopoietic stem cell maintenance and self-renewal and EVI1 levels decrease as the cells differentiate. In approximately 5-10% of de novo acute myeloid leukemia (AML) EVI1 is aberrantly expressed, including Chromosomal inv(3)(q21;q26.2) or t(3;3)(q21;q26.2) alterations (MECOM-r) that account for about 50% of AML with EVI1 overexpression 31. AMLs with high levels of EVI1 have a poor prognosis and an overall survival time averaging between 10-14 months. EVI1 overexpression confers resistance in leukemia cells, highlighting the need to develop new targeted therapies for EVI1 overexpressing AMLs. Here, we performed an unbiased chemical drug screening by evaluating the single agent activity of a collection of 2,480 oncology-focused, approved and investigational drugs (NCATS Mechanism Interrogation Plates, MIPE v5.0) against a panel of seven AML cell lines. These included four MECOM-r cell-lines (AML-191, AML-194, UCSD-AML1 and HNT-34) and three non-MECOM-r AMLs (MV4-11, OCI-AML3 and SET-2). Exploiting the mechanistic redundancy built in the library, we identified target-level sensitivities in MECOM-r AML cells and relative activity as compared to other AML subtypes.
# A collection of 2480 mechanistically annotated dugs (MIPE v5.0) was used to screen four 3q26.2 rearranged AML cell lines and three non-3q26.2 rearranged AML cell lines. This library purposely exploits redundancy by including multiple inhibitors of key onco-targets, while simultaneously encompassing mechanistic diversity, targeting more than 800 distinct mechanisms of action. Briefly, cells were seeded in 5 uL of growth media using a Multidrop Combi dispenser into 1536 well white polystyrene tissue culture treated plates (Corning) at a density of 500cells/well. For each cell-line, for each of the 2480 drugs in MIPE v5.0 library, an 11-point dose curve was generated via a 1536 pin-tool. Plates were incubated for 48 hr at standard incubator conditions, covered by a stainless steel gasketed lid to prevent evaporation. Cell viability was determined by luminescence based, Cell Titer Glo assay (Promega). In detail, 3 uL of Cell Titer Glo were added to each well and plates were incubated at room temperature for 15 min with a stainless-steel lid in place. Luminescence readings were taken using a Viewlux (PerkinElmer) with a 2 s exposure time per plate. Compound dose-response curves were normalized to DMSO and empty well controls on each plate. Quantitative drug activity data from dose-response curves was determined utilizing area Under the Curve (AUC) and Z-transformed AUC (Z-AUC, a mean-centering transformation applied to each individual cell-line screened).
# Potency is read from the fitted curve at half-maximal effect; tags tell the direction and shape of the fitted curve.
SMILES,Potency,viability (% of control)
Oc1ccc2ccccc2c1SSc1c(O)ccc2ccccc12,active: 18.6 µM,–
O=C(O)CC(C(=O)O)n1c(O)c(C2=c3cc(Br)ccc3=NC2=O)sc1=S (stereo not given),–,inactive: 85.3%
COc1cc(OC)cc(N2CCN(C(=O)Nc3nc4cc(F)ccc4nc3OC)CC2)c1,active: 0.833 µM,–
CCCn1c(=O)c2[nH]c(-c3cnn(Cc4cccc(C(F)(F)F)c4)c3)nc2n(CC)c1=O,–,inactive: 100%
C/C(=C\c1csc(C)n1)[C@@H]1C[C@@H]2O[C@]2(C)CCC[C@H](C)[C@H](O)[C@@H](C)C(=O)C(C)(C)[C@@H](O)CC(=O)N1,active: 0.0148 µM,–
COc1cc(N2CCN(C(C)=O)CC2)ccc1Nc1ncc(Cl)c(Nc2ccc(N3CCN(C(C)=O)CC3)cc2OC)n1,active: 6.61 µM,–
CC(O)c1cc(C(=O)N[C@@H](C)Cn2ccc(-c3ccc(C#N)c(Cl)c3)n2)n[nH]1 (stereo not given in full),"inconclusive: 20.9 µM [inhibitor, single point]",–
C[C@H](Nc1ncnc2nc[nH]c12)c1cc2ccc(F)cc2nc1-c1ccccn1,"inconclusive: 13.2 µM [inhibitor, partial curve]",–
CNC(=O)c1ccc2cc(C3(O)CCn4cncc43)ccc2c1 (stereo not given),–,inactive: 90.3%
C[C@H]1Oc2cc(cnc2N)-c2c(nn(C)c2C#N)CN(C)C(=O)c2ccc(F)cc21,"inconclusive: 13.2 µM [inhibitor, partial curve, poor fit]",–
Cc1[nH]c(/C=C2\C(=O)Nc3ccccc32)c(C)c1CCC(=O)O,"inconclusive: 26.3 µM [inhibitor, single point]",–
CCOC(=O)c1ccc(C#Cc2ccc3c(c2)C(C)(C)CCS3)nc1,"inconclusive: 23.5 µM [inhibitor, partial curve, poor fit]",–
Cn1c(-c2ccccc2C(F)(F)F)nnc1C12CCC(c3noc(C4CC(F)(F)C4)n3)(CC1)CC2,–,inactive: 86.4%
O=C(Nc1cccnn1)N1CCC(=Cc2cccc(Oc3ccc(C(F)(F)F)cn3)c2)CC1,"inconclusive: 23.5 µM [inhibitor, single point]",–
COc1cccc(-c2c(C)n(Cc3c(F)cccc3C(F)(F)F)c(=O)n(C[C@H](NCCCC(=O)O)c3ccccc3)c2=O)c1F,"inconclusive: 37.2 µM [inhibitor, partial curve, poor fit] and inconclusive: 23.5 µM [inhibitor, partial curve, poor fit]",–
C[C@@H]1N=C(N)NC(N(C)C)=N1,–,inactive: 98.9%
CN(Cc1cc(Br)cc(Br)c1N)C1CCCCC1,–,inactive: 91.4%
Cc1ccc(NC(=O)c2ccc(CN3CCN(C)CC3)cc2)cc1Nc1nccc(-c2cccnc2)n1,"inconclusive: 0.742 µM [inhibitor, full curve, poor fit]",–
CN(C)C(=O)[C@H](O)[C@H](Cc1ccccc1)NC(=O)c1cc2cc(Cl)ccc2[nH]1,"inconclusive: 20.9 µM [inhibitor, single point]",–
CCN1CCC(n2cc(CNc3cc(Cl)c4ncc(C#N)c(Nc5ccc(F)c(Cl)c5)c4c3)nn2)CC1,"inconclusive: 33.2 µM [inhibitor, single point]",–

SMILES,Potency,viability (% of control)
Cc1ccc(N(CC2=NCCN2)c2cccc(O)c2)cc1,"inconclusive: 18.6 µM [inhibitor, partial curve]",–
Clc1cc(Cl)cc(CNc2ncncc2-c2ccc3c(c2)OCO3)c1,"inconclusive: 14.8 µM [inhibitor, partial curve]",–
C/C=C(/C(=C/C)c1ccc(O)cc1)c1ccc(O)cc1,"inconclusive: 26.3 µM [inhibitor, single point]",–
CO[C@H]1C[C@@H]2CC[C@@H](C)[C@@](O)(O2)C(=O)C(=O)N2CCCC[C@@H]2C(=O)O[C@H]([C@@H](C)C[C@@H]2CC[C@H](O)[C@H](OC)C2)CC(=O)[C@H](C)C=C(C)[C@@H](O)[C@@H](OC)C(=O)[C@H](C)C[C@H](C)C=CC=CC=C1C,"inconclusive: 37.2 µM [inhibitor, partial curve, poor fit]",–
N[C@@H](Cc1cc(I)c(Oc2cc(I)c(O)c(I)c2)c(I)c1)C(=O)O,"inconclusive: 16.6 µM [inhibitor, partial curve, poor fit]",–
Nc1ncnc2c1ncn2[C@@H]1O[C@H](CO)[C@@H](O)[C@@H]1O,"inconclusive: 14.8 µM [inhibitor, partial curve, poor fit]",–
NS(=O)(=O)c1ccc(S(=O)(=O)Nc2cccc3c(Cl)c[nH]c23)cc1,active: 1.32 µM,–
Cc1noc(C)c1-c1ccc(-c2cc(C(N)=O)c(NC(N)=O)s2)c(O[C@H]2CCNC2)c1,–,inactive: 99.3%
Nc1nc(OC(c2ccc(-c3cccc(F)c3)cc2)C(F)(F)F)cc(-c2ccc(C[C@@H](N)C(=O)O)cc2)n1 (stereo not given in full),"inconclusive: 37.2 µM [inhibitor, single point]",–
CC[C@@H]1[C@H](F)C(=O)N[C@@H]1COc1nccc2cc(C(N)=O)c(OC)cc12,active: 11.8 µM,–
Nc1ncc(C(=O)NC2CN(C(=O)C3CC3)C2)c2ccc(-c3cccc(F)c3)nc12,"inconclusive: 8.33 µM [inhibitor, single point]",–
C=CC(=O)N1CCC(CNc2ncnc(N)c2-c2ccc(Oc3ccccc3)cc2)CC1,"inconclusive: 23.5 µM [inhibitor, single point]",–
C/C=C(/C)C(=O)O[C@H]1C(C)=CC23C(=O)C(C=C(CO)[C@@H](O)[C@]12O)[C@H]1[C@@H](C[C@H]3C)C1(C)C (stereo not given in full),"inconclusive: 0.0012 µM [inhibitor, full curve, poor fit]",–
CN(C(=O)c1c(O)c2ccccc2n(C)c1=O)c1ccccc1,–,inactive: 82.5%
COC(=O)N[C@H](C(=O)N1CCC[C@H]1c1ncc(-c2ccc(-c3ccc(-c4cnc([C@@H]5CCCN5C(=O)[C@@H](NC(=O)OC)C(C)C)[nH]4)cc3)cc2)[nH]1)C(C)C,"inconclusive: 20.9 µM [inhibitor, partial curve]",–
Cc1ccc(-c2ccc(C)cn2)nc1,"inconclusive: 37.2 µM [inhibitor, single point]",–
COc1cc(CNC(=O)CCCC/C=C/C(C)C)ccc1O,active: 6.61 µM,–
Oc1cc2c(cc1O)C1c3ccc(O)c(O)c3OCC1(O)C2 (stereo not given),"inconclusive: 26.3 µM [inhibitor, partial curve]",–
O=C(CO)N1CCC(c2[nH]nc(-c3ccc(Cl)cc3)c2-c2ccncn2)CC1,–,inactive: 83%
c1cc(-c2cnn3cc(-c4ccc(OCCN5CCCCC5)cc4)cnc23)ccn1,active: 1.66 µM,–
